The full ranking holds about 33,000 sequences; the median of “E-score (-0.5 to 0.5)” is about -0.053, and the highest 2% start at about 0.37. Some of the results follow.
Target: Hap1 (UniProt P0CE41)
Experiment: PBM E-score (8-mer binding enrichment) (E-score (-0.5 to 0.5)); higher = stronger / more preferred TF binding; most listed sequences are background and not binding sites
Details: protein concentration: 200 nM; construct: GST-DNA-binding domain
Procedure, shortened: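 Using PURExpress in vitro transcription/translation, GST-tagged yeast transcription factors were made in full-length or DNA-binding-domain form. These were applied at about 100-200 nM to double-stranded universal all-10-mer Agilent arrays, and bound protein was detected with fluorescent anti-GST. Scans were normalised with masliner before the Universal PBM Analysis Suite assigned E-scores to ungapped eight-base words pooled with their reverse complements.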

Chain of UniProt P0CE41 (P0CE41 whole entry): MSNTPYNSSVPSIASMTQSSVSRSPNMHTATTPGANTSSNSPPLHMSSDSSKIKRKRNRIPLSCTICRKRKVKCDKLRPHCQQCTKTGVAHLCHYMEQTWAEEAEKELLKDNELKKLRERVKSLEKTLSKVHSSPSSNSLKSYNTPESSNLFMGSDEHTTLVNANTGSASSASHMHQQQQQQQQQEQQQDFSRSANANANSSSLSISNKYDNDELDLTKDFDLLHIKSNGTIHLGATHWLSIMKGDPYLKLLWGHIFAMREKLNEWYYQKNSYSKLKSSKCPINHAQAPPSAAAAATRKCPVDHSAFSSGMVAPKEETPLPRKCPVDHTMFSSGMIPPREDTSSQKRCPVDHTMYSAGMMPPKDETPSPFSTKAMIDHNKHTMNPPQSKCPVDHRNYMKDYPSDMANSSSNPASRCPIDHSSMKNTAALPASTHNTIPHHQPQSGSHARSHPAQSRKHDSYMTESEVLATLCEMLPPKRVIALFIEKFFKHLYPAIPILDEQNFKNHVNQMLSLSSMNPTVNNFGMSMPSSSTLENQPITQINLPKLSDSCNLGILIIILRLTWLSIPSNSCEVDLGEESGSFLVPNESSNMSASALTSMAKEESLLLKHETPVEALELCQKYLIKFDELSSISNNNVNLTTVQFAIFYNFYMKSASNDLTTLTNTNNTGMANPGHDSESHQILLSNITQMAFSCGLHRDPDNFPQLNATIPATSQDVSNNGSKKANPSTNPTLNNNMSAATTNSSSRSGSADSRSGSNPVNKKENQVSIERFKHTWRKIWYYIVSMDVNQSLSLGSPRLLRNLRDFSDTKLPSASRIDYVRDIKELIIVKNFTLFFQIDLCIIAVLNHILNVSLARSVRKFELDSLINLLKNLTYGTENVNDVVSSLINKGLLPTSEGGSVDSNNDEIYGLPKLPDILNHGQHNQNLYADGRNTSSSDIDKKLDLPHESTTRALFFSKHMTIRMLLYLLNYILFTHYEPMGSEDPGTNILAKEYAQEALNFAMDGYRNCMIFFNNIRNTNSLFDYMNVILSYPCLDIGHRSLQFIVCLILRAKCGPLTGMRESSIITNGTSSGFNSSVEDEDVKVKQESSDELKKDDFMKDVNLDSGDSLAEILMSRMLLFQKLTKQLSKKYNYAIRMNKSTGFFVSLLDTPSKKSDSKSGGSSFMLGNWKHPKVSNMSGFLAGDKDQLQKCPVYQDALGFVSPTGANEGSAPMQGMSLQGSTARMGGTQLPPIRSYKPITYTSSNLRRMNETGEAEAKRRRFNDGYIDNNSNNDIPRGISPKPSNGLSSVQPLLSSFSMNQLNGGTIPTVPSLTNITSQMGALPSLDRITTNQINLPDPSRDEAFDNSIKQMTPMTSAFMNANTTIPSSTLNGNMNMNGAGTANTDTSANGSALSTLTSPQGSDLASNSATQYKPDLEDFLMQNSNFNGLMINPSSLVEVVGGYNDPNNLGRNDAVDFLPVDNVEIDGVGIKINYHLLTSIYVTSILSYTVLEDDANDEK

Sequence	PBM E-score
ATAGTGTA	-0.141
GGGATACC	0.196
CACAAGAA	-0.0278
AAGCAAAC	-0.023
AGGATGGG	-0.145
AAGCTTCT	-0.124
AGTTTTCA	-0.0278
ACGCGAGT	0.128
CATAGCAG	-0.303
GGTCGACA	-0.0217
AGATATAG	-0.0888
AGGTCTAG	-0.229
GATACCAC	0.205
ACGAGCTC	0.00515
TGTCTGAA	-0.173
ACAGAGGG	-0.24
ATTGTATC	0.0599
ATCAACCG	0.176
CCCCAGGC	-0.192
CTCACGGA	0.221
ATTGGGAC	-0.132
ACACTGCC	0.0209
GTGAATAA	-0.145
ATGCTTTG	-0.204
AGGACCCT	-0.288

Sequence	PBM E-score
CGTAAAAA	-0.0257
AGACACAA	-0.0156
ATAATTAT	0.109
CCTCTACC	0.073
ACCTTTCT	-0.251
CTTGTGCC	-0.125
ATAAATGC	0.0248
GGGATTAC	0.248
GTCATCCA	-0.0614
ATTCGGCC	0.375
TATGCATA	-0.267
CTCAGAGA	-0.174
TGGTTAAA	-0.0634
ACTTTCCA	-0.00707
CATTTAGA	-0.0238
CGCACATC	0.0694
CTCTCGTC	-0.068
AATGGCCG	0.217
ATATCGTG	-0.0299
AAGGAACA	-0.0987
GAAGTGCC	0.0732
GCATTCTA	-0.172
AAAGCACG	-0.0743
CGAAAGGA	0.171
CACCCCCA	-0.266

Sequence	PBM E-score
AAGACCTG	-0.0727
AAAGCGAG	0.116
CCAAACAC	-0.151
GCGTGGGA	-0.14
AACCGCTG	-0.0744
AATACCAG	0.0158
ACGTGTCC	0.188
CTAGCTGA	-0.256
AGTTATCC	0.106
TGCGGGAA	0.209
GCTCAACC	-0.111
GAAATTGA	0.13
AGTAAGAA	-0.101
AAGAGAAA	-0.117
AATCAGGC	-0.0136
GTTAAAGA	0.0418
ACCCTCCT	-0.0844
GATTGAGC	0.0493
CAGTAGCA	-0.0737
ACGTACGA	-0.019
CAGCCGTA	0.00855
ATGGCGAG	-0.199
CACGATGA	-0.204
AGCCCGTG	0.0403
AGTATGGA	-0.0629

Sequence	PBM E-score
GGGCCGGA	0.355
GGTGCAAA	-0.137
ATACCAGA	-0.188
ACCAGACG	-0.265
AAGGGAAA	-0.191
CCGAAGCG	0.367
ACGAGGCC	0.0939
AACGGGGG	0.158
ATGGTGTG	-0.303
ACTTCCAC	0.0562
GCTTTCAC	-0.183
CATACTAG	-0.00017
ATGTTGCG	0.058
AGATCAAC	-0.284
AGGTACCA	-0.158
ATCTAAGC	-0.0574
ATCCAACA	-0.0248
CCTGTATC	0.022
GCCGAGTA	0.276
ACTGTGCG	-0.13
ATTGTGTG	-0.169
ACCTCCGA	0.391
AGGTTTTG	-0.104
CCCACACG	0.109
CACCCCCG	0.193

Sequence	PBM E-score
ACCGGTGA	0.318
GCCCTCCA	-0.236
CCATTACG	-0.0522
ATCTACCC	0.123
ACAACTCT	-0.18
ACAACTGA	-0.239
AAAGCAAT	-0.125
AACACAAC	-0.115
TGTCCTAA	-0.338
AAATACCA	-0.044
GAAGCTAC	-0.155
AGAGTATC	-0.19
GGCTTACA	-0.035
AAGGGACA	-0.319
TACGTATA	-0.234
GGATGGCA	0.064
GGGGCGAA	0.127
GTACCGTA	0.0486
GGAAAACA	0.139
GATTGGGC	-0.00882
CTCTATCA	-0.226
CAAACGTA	-0.118
ACTGACCT	-0.162
AGGCTACC	-0.16
CAGTACGG	-0.0384

Sequence	PBM E-score
ATGTTTTG	-0.128
GCGTCAGC	-0.0136
GCTTGCCC	-0.235
CGCTATAC	0.175
GTCTCAGA	-0.179
CGATAAAC	0.2
GATTAATA	0.0465
GGGGAATA	0.107
TAAAACAA	-0.157
ATAACGAC	-0.0175
ACCAGACC	0.0586
CCAACGAC	-0.205
GAGAATTA	-0.00799
ACCTCCGG	0.454
AGAATCCA	-0.115
GTATGTTA	0.0208
AAGATATT	-0.0114
CGACTCGC	0.0452
GATTAGTA	0.101
ACATATGT	-0.0834
AGCTCCCC	-0.093
CGATCTGA	-0.104
ACAGCGGC	0.0335
ACGGTGTC	0.0373
GACCGCTC	0.113

Sequence	PBM E-score
CTCTCCAG	-0.246
AAACCCGT	0.361
CCGGCTTA	0.342
GATTCAGA	-0.19
CCCTACAG	-0.258
ATCTTCAC	0.0153
ACGCTTCA	-0.302
AGGACAAA	-0.016
GCGCGATA	0.266
TGCAGAAA	-0.086
AAACCGCA	-0.0551
GACCCTGA	-0.224
CATCTATC	-0.00973
TCGGGACA	0.203
AGTAGGTG	-0.134
CACGTTCA	-0.197
CCCGGTTC	0.232
AAATTGCA	-0.12
ATTGAGTC	0.0706
AGTTGTCC	0.152
GTCTACGA	-0.188
CGGAACGA	0.2
GTCTAACA	-0.0178
CCAATCCC	0.0701
CAACTCTC	-0.134

Sequence	PBM E-score
AAGTTAAC	-0.0608
CGTATGTC	-0.015
ACTATCTC	0.0547
CAGTGCAA	-0.204
GTTTCTAA	0.105
CAAATTTG	0.141
TACACCCA	-0.0325
GGCGTTTA	0.343
GTTTACTA	-0.0613
ATAAATTA	0.0604
GTTGACGA	-0.128
CACCATAC	-0.112
ACCAGTCA	-0.153
GCTTCCCA	-0.178
CTATCAAC	-0.00788
TTAATGAA	-0.134
CTATGCTA	-0.104
ATATCGAT	-0.0219
AAAGCTTC	0.0623
ATGTTGAC	0.0672
GAGTCTAC	-0.0976
CAGGGGGA	-0.381
CCTTGCGC	-0.0225
CCTACACG	-0.273
ACAGCAGA	-0.116

Sequence	PBM E-score
CCAAAGGG	-0.212
GGACATCC	0.248
AAGCACTC	-0.0036
GCGGAGCA	0.211
ACTCGTCT	-0.189
AATTTCAC	-0.12
ACATCTTA	-0.273
CGCATAGC	-0.0115
ACGAAGAT	-0.253
ACACTGTC	-0.113
CCCACGAC	-0.142
TCGGGGAA	0.305
CGGGTTAG	0.218
AATTGAGC	-0.203
CCAACTCC	0.257
GAGTGAGC	-0.171
GGGAACAA	0.201
CTATTGGC	-0.0897
CGAGGGAA	0.00282
